PubChem BioAssay AID686978 (National Center for Advancing Translational Sciences (NCATS), 2013)
About 64,000 (15%) of roughly 420,000 compounds were called active. Inconclusive results, whose numbers are uncertain, are shown with a selection of clear calls. Calls come from the whole dose curve; as a rule, active = well fitted inhibition curve with a large enough effect; inconclusive = small, poorly fitted or top-dose-only effect; inactive = flat fitted curve, though single readings scatter. Potencies of inconclusive entries are left out as doubtful fits.

Test: qHTS for Inhibitors of human tyrosyl-DNA phosphodiesterase 1 (TDP1): qHTS in cells in absence of CPT; note: nearly all actives have a fitted effect of over 55% in size
Conditions: DT40 Tdp1-/- hTDP1 cells, no CPT, ATP luminescence, 48 h; activity change, negative = growth inhibition: at 46.2 µM (top of the series) unless noted
In short: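 A cellular qHTS used chicken DT40 cells lacking endogenous Tdp1 but carrying stably transfected human TDP1. Compounds were applied without camptothecin, and cell growth kinetics were judged by ATP-dependent luminescence after ≥48 hr.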
% is set by controls: 0 for no effect and ±100 for the full control effect; potency is the fitted concentration of half-maximal effect; tags give direction and shape of the fitted curve.

Which Potency does the source give for `CC(C)CCN1C(=O)c2cccc3c(N)ccc(c23)C1=O` here?
Its Potency is inconclusive [inhibitor, single point].

With `CN(C)CCCNC(=O)C(=O)Nc1ccc2c(c1)N(S(=O)(=O)c1cccs1)CCC2` as the compound, how does the Potency read?
The Potency was inconclusive [inhibitor, single point].

Which Potency does the source give for `CN(C(=O)COC(=O)c1ccccc1SCC(=O)NC1CCCCCCC1)C1CCS(=O)(=O)C1` (stereo unspecified) here?
The Potency was inconclusive [inhibitor, single point].

Which Potency does the source give for `O=C(NCC1CCCCC1)c1ccc(Cl)c(S(=O)(=O)N2CCOCC2)c1` here?
Its Potency is inconclusive [inhibitor, single point].

With `CC[C@H](C)[C@@H]1NC(=O)c2cc([N+](=O)[O-])cc(I)c2SC[C@@H](C(N)=O)NC(=O)[C@H](CCCCN)NC1=O` as the compound, how does the Potency read?
The Potency was inconclusive [inhibitor, single point].

Which “activity change, negative = growth inhibition” value does the source give for `O=C(Cn1cc(Cl)ccc1=O)c1ccc(Cl)cc1` here?
Its value is inactive: -11.2%.

With `O=c1c2ccccc2oc2cc(C#CC3(O)CCCCC3)ccc12` as the compound, how does the Potency read?
Its Potency is inconclusive [inhibitor, single point].

Which Potency does the source give for `O=C(C1CC1)N1CCN(c2nc3ccc(F)cc3s2)CC1` here?
The Potency was inconclusive [inhibitor, single point].

For `CN(Cc1nccs1)C(=O)c1ccc2nc(Cc3ccccc3F)oc2c1`, which activity change, negative = growth inhibition is on record?
The activity change, negative = growth inhibition was inconclusive: -30.2% [inhibitor].

Which Potency does the source give for `COCCCNCCCCSc1ccc(Cl)cc1` here?
The Potency was inconclusive [inhibitor, partial curve].

For `COc1cccc(OCc2nc3ccccc3n2CCOc2ccccc2C)c1`, which Potency is on record?
The Potency was inconclusive [inhibitor, single point].

With `COC(=O)[C@@]12CCCN1[C@H](c1ccc(-c3ccc(Cl)c(Cl)c3)c(OC)c1)[C@H]1C(=O)N(C)C(=O)[C@H]12` as the compound, how does the Potency read?
The Potency was active: 23.1 µM.

With `CCn1c(CC(=O)Nc2ccc(Cl)c(Cl)c2)nnc1SCc1ccc(C)cc1` as the compound, how does the Potency read?
The Potency was inconclusive [inhibitor, single point].

Which Potency does the source give for `CCC(C)(NC(=O)c1cccc(N2C(=O)CSC2c2ccccc2)c1)C(=O)Nc1ccccc1C` (stereo unspecified) here?
Its Potency is inconclusive [inhibitor, single point].

With `Cc1ccc(CCC(=O)Nc2ccc(Cl)cc2)o1` as the compound, how does the “activity change, negative = growth inhibition” value read?
Its value is inactive: -4.47%.

Which Potency does the source give for `Cc1nc(C)c(-c2csc(NCc3ccco3)n2)s1` here?
Its Potency is inconclusive [inhibitor, single point].

Which “activity change, negative = growth inhibition” value does the source give for `CCOC(=O)c1c(NC(=O)COC(=O)Cn2cnc3c2c(=O)n(C)c(=O)n3C)sc(C)c1CC` here?
The value was inactive: -21.9%.

Which Potency does the source give for `CCC(Oc1ccccc1)C(=O)Nc1ncc([N+](=O)[O-])s1` (stereo unspecified) here?
The Potency was inconclusive [inhibitor, single point].

For `CCCCOc1ccc(CNC(=O)c2cnc3sc(N4CCOCC4)nn3c2=O)cc1`, which Potency is on record?
The Potency was inconclusive [inhibitor, single point].

For `CC1(C(=O)NCc2ccccc2)Cc2c(-c3ccc(C(N)=O)cc3)ccnc2O1` (stereo unspecified), which Potency is on record?
Its Potency is active: 2.06 µM.

For `CCc1cc(C(=O)c2ccccc2OC)c(N)s1`, which activity change, negative = growth inhibition is on record?
Its activity change, negative = growth inhibition is inconclusive: -37.5% [inhibitor].

Which Potency does the source give for `Cc1c2ccccc2nc2c(F)c(NC(C)C)c(F)c(F)c12` here?
The Potency was inconclusive [inhibitor, single point].

For `CC(OC(=O)/C=C/c1ccccc1)C(=O)Nc1ccc2c(c1)OCCO2` (stereo unspecified), which Potency is on record?
The Potency was inconclusive [inhibitor, single point].

Which Potency does the source give for `OC(c1ccc(F)cc1)c1ncc(-c2cccc3ccccc23)[nH]1` (stereo unspecified) here?
The Potency was inconclusive [inhibitor, single point].

For `COc1ccc(C(CC(=O)c2ccc(C)cc2)Nc2ccc([N+](=O)[O-])cc2)cc1` (stereo unspecified), which Potency is on record?
Its Potency is inconclusive [inhibitor, single point].

For `CC(CNc1ccc([N+](=O)[O-])cc1)NC(=O)c1ccccc1Br` (stereo unspecified), which Potency is on record?
The Potency was inconclusive [inhibitor, single point].

With `COc1cccc(/C=N/NC(=O)NC23CC4CC(CC(C4)C2)C3)c1O` as the compound, how does the Potency read?
The Potency was inconclusive [inhibitor, partial curve].

Which Potency does the source give for `Cc1cc(N2CCC(C)CC2)n2ncc(-c3ccccc3)c2n1` here?
The Potency was inconclusive [inhibitor, partial curve, poor fit].

For `CC(C)[C@H](NC(=O)OC(C)(C)C)c1cc(C(=O)N[C@@H](C)c2ccccc2)c(N)s1`, which Potency is on record?
Its Potency is inconclusive [inhibitor, single point].

For `O=[N+]([O-])c1ccc(N2CCN(S(=O)(=O)c3ccccc3)CC2)cc1`, which Potency is on record?
Its Potency is inconclusive [inhibitor, single point].

Which “activity change, negative = growth inhibition” value does the source give for `CCc1ccc(OCCn2ccnc2)cc1` here?
Its value is inactive: -3.26%.

Which Potency does the source give for `Cc1cccc(OCC(=O)Nc2ccccc2N2CCCC2)c1C` here?
The Potency was inconclusive [inhibitor, single point].

Which Potency does the source give for `O=C(Nc1ccc(-c2cccc(F)c2)cc1)C1CCCN(Cc2ccccn2)C1` (stereo unspecified) here?
The Potency was active: 23.1 µM.

With `O=C(CCn1ccc2cc(S(=O)(=O)N3CCCC3)ccc21)NCc1cccc(Br)c1` as the compound, how does the Potency read?
The Potency was inconclusive [inhibitor, single point].

For `O=C(Cc1ccc(S(=O)(=O)N2CCOCC2)s1)Oc1ccc(F)cc1`, which “activity change, negative = growth inhibition” value is on record?
The value was inactive: -35.6%.

Which “activity change, negative = growth inhibition” value does the source give for `CCOC(=O)C(C)Oc1cccc2c(=O)n(CC(=O)Nc3ccc4c(c3)OCCO4)ccc12` (stereo unspecified) here?
Its value is inactive: -24.4%.

With `Cc1cc(C(F)(F)F)n(-c2nc(C(=O)Nc3cccnc3)cs2)n1` as the compound, how does the Potency read?
The Potency was inconclusive [inhibitor, single point].

For `CCn1cc(C(=O)OCC(=O)Nc2cccc(C)c2)c(=O)c2ccc(C)nc21`, which “activity change, negative = growth inhibition” value is on record?
Its value is inactive: -0.576%.

With `CC(=O)Oc1ccc(N(C(C)=O)S(=O)(=O)c2ccc3ccccc3c2)cc1` as the compound, how does the Potency read?
The Potency was active: 20.6 µM.

With `CC1OC(OC2C(CO)OC(OCC3OC(OC(=O)[C@@]45CCC(C)(C)C[C@@H]4C4=CC[C@@H]6[C@@]7(C)CCC(OC8OCC(O)C(O)C8OC8OC(C)C(O)C(O)C8O)[C@@](C)(CO)C7CC[C@@]6(C)[C@]4(C)CC5)C(O)C(O)C3O)C(O)C2O)C(O)C(O)C1O` (stereo partly specified) as the compound, how does the Potency read?
The Potency was inconclusive [inhibitor, single point].

Which Potency does the source give for `O=C(NCC1CCCC(CNC(=O)Nc2ccc(Cl)cn2)C1)Nc1ccc(Cl)cn1` (stereo unspecified) here?
Its Potency is inconclusive [inhibitor, single point].

For `CCCS(=O)(=O)c1ccc(COC(=O)c2cccc(NC(=O)C(C)C)c2)cc1`, which Potency is on record?
Its Potency is inconclusive [inhibitor, single point].

With `CSCC[C@H](NC(=O)[C@@H]1CSC2c3ccccc3C(=O)N21)C(=O)N1CCC[C@H]1CO` (stereo partly specified) as the compound, how does the “activity change, negative = growth inhibition” value read?
The value was inactive: -3.16%.

With `Cc1cccc(NC(=S)NCCc2ccc3c(c2)OCCO3)c1C` as the compound, how does the Potency read?
The Potency was inconclusive [inhibitor, single point].

With `Fc1ccc(-n2ncc3c(SCc4cccnc4)ncnc32)cc1` as the compound, how does the Potency read?
Its Potency is inconclusive [inhibitor, single point].

With `Cc1ccc(C)c(Nc2nn3c(=O)c4ccc(C(=O)NC5CCCCC5)cc4nc3s2)c1` as the compound, how does the Potency read?
Its Potency is active: 8.2 µM.

With `O=C(CSc1nc2c(c(=O)n1-c1ccc(Cl)cc1)SCC2)Nc1nccs1` as the compound, how does the Potency read?
Its Potency is inconclusive [inhibitor, single point].

For `CCN(CC)S(=O)(=O)c1cc(C(=O)Nc2cc(C)on2)ccc1Cl`, which Potency is on record?
The Potency was inconclusive [inhibitor, partial curve, poor fit].

Which “activity change, negative = growth inhibition” value does the source give for `CN(CC(=O)Nc1cccc(F)c1)C(=O)C1CC(=O)N(Cc2ccco2)C1` (stereo unspecified) here?
The value was inactive: -18.9%.

With `NC(=O)c1ccc(NCc2ccco2)c([N+](=O)[O-])c1` as the compound, how does the activity change, negative = growth inhibition read?
Its activity change, negative = growth inhibition is inconclusive: -33% [inhibitor].

For `COc1cccc(NC(=O)COc2coc(CN3CCc4ccccc4C3)cc2=O)c1`, which “activity change, negative = growth inhibition” value is on record?
Its value is inactive: -20.9%.

For `Cc1ccc(/C=C2\SC(=S)N(CCCC(=O)Nc3ccccn3)C2=O)cc1`, which Potency is on record?
The Potency was inconclusive [inhibitor, single point].

For `Cc1c(C)n(Cc2ccccc2)c2ccc(C(=O)NCc3ccco3)cc12`, which Potency is on record?
Its Potency is active: 16.4 µM.

For `Cc1cc2nc(-c3cccc(Cl)c3)c(Cc3ccccc3)n2c(C)c1Br`, which Potency is on record?
Its Potency is inconclusive [inhibitor, single point].

For `COc1cccc(-c2csc(NC(C)=O)n2)c1`, which “activity change, negative = growth inhibition” value is on record?
Its value is inactive: -3.38%.

For `O=C(Nc1ccccc1C(=O)NCc1ccco1)Nc1cccc2ccccc12`, which Potency is on record?
Its Potency is active: 11.6 µM.

Which Potency does the source give for `CC1(C)CC(=O)c2cc3c(N)c(C(=O)NCc4ccccc4)sc3nc2C1` here?
The Potency was inconclusive [inhibitor, single point].

Which Potency does the source give for `O=S(=O)(c1ccc(F)cc1F)N1CCN(c2nc(-c3cccs3)nc3ccccc23)CC1` here?
Its Potency is inconclusive [inhibitor, single point].

With `CCc1ccc(NC(=O)Cn2c(=O)n(CCC(=O)NCc3ccc4c(c3)OCO4)c(=O)c3ccccc32)cc1` as the compound, how does the Potency read?
Its Potency is active: 9.2 µM.

With `CN1C(C(=O)NCc2cccc(Br)c2)CC2Cn3c(nc4cc(Cl)c(Cl)cc43)C21` (stereo unspecified) as the compound, how does the Potency read?
The Potency was inconclusive [inhibitor, single point].

With `CCC1CN(C(=O)Nc2cc(C)cc(C)c2)c2ccccc2O1` (stereo unspecified) as the compound, how does the Potency read?
Its Potency is inconclusive [inhibitor, single point].

With `Cc1cc(NC(=O)c2cc(-c3ccc(Cl)cc3)on2)nn1Cc1ccc(Cl)cc1` as the compound, how does the “activity change, negative = growth inhibition” value read?
The value was inactive: -18%.

With `CSC1=NSC2=NC(=O)/C(=C\c3coc4ccccc4c3=O)C(=N)N12` as the compound, how does the Potency read?
Its Potency is inconclusive [inhibitor, partial curve, poor fit].

With `CCOC(=O)c1cnc(SCCN2CCOCC2)nc1N` as the compound, how does the “activity change, negative = growth inhibition” value read?
The value was inactive: 9.94%.

For `Fc1ccc(CSc2ncnc3nc[nH]c23)cc1`, which Potency is on record?
Its Potency is inconclusive [inhibitor, single point].

With `Cc1c(C(=O)Nc2nonc2-c2ccc(F)cc2)oc2ccc(F)cc12` as the compound, how does the Potency read?
Its Potency is inconclusive [inhibitor, single point].
